# The campaign covered roughly 310,000 compounds. About 14,000 (4.5%) showed an effect of 50% or more. Effects have a minus sign here. This is one part of the list.
# Target: human ether-à-go-go-related gene (hERG) potassium channel (human, UniProt Q12809)
# Experiment: primary screen, population patch clamp on CHO cells stably expressing hERG
# 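Note: peak tail current of the secondary pulse compared with the same well before compound.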
# Chain of human ether-à-go-go-related gene (hERG) potassium channel (Q12809 whole entry, looked up): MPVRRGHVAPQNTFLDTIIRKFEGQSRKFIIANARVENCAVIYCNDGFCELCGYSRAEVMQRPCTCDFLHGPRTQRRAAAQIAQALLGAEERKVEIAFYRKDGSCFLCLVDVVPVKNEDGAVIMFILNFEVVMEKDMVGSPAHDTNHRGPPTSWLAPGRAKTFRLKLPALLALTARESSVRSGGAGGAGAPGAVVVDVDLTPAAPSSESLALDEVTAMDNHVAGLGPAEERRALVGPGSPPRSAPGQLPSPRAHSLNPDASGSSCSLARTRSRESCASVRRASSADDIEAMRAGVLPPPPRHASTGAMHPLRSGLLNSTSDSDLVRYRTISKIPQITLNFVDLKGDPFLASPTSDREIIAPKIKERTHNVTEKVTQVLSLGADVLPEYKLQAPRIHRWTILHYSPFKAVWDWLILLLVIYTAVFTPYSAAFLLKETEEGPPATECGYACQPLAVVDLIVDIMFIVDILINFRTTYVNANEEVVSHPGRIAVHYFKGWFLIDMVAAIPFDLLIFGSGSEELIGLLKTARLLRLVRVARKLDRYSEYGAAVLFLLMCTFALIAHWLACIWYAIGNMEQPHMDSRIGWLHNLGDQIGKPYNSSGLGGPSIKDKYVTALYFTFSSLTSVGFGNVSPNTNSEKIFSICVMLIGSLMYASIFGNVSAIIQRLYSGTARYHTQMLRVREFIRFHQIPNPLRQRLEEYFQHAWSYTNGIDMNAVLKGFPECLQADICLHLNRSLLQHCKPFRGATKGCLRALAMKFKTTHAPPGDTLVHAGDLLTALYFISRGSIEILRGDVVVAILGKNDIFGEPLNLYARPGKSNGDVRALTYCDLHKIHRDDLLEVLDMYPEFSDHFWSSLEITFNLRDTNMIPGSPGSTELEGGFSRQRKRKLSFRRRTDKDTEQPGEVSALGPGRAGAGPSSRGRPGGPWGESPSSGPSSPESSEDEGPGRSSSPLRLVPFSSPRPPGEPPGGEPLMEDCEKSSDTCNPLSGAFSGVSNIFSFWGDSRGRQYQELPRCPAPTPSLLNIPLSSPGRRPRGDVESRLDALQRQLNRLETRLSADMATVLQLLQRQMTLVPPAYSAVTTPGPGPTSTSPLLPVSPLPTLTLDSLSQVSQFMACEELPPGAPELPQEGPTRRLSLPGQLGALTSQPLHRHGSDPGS
row,SMILES,"hERG current change (%, negative = inhibition) at 10uM [%]"
1,CCC(=O)N(Cc1ccco1)c1nc(-c2ccccc2)cs1,-1.16
2,Cn1c(=O)c2nc3ccccc3nc2n(C)c1=O,-1.75
3,CCN1CCN(C(=O)c2ccc(Cl)c(S(=O)(=O)N3CCCCC3)c2)CC1,-69.8
4,CCN(CC(=O)NCc1cccs1)C(=O)c1ccc(NS(=O)(=O)c2ccc(C(C)=O)cc2)cc1,9.43
5,Cc1ccccc1NC(=O)CSc1nnc(-c2ccco2)n1N,4.14
6,O=c1nc2ccc(Cl)cn2c2ccc(S(=O)(=O)N3CCCCC3)cc12,-0.392
7,c1ccc2c(c1)nnn2CNc1nccs1,16.8
8,Cc1ccc2sc(C)[n+](CCCS(=O)(=O)[O-])c2c1,10.9
9,CN(C(=O)CSc1nnc(C2CC2)n1C1CC1)C1(C#N)CCCCC1,-5.85
10,COc1cc(CCCN2CCNC[C@@H]2C(C)O)cc(OC)c1OC (stereo partly drawn),11.2
11,COc1ccccc1NC(=O)c1ccc2c(c1)N(CC(=O)NC(C)C)C(=O)C(C)(C)O2,6.66
12,O=C(CC(=O)NC1CCCCC1)N/N=C/c1ccccc1F,12
13,COc1cc(/C=N/NC(=O)c2cccs2)ccc1OCc1ccccc1,9.59
14,Cc1nc2nc(SCC(=O)c3cccc([N+](=O)[O-])c3)[nH]c2cc1Br,0.603
15,Cc1noc(NS(=O)(=O)c2ccc(NC(=O)CC(C)C)cc2)c1C,17.5
16,CCOC(=O)C1(CCCc2ccccc2)CCN(C(=O)c2ccoc2)CC1,-54.3
17,CCOC(=O)c1c(NC(=S)Nc2ccc(OC)cc2)sc2c1CCC2,14
18,O=C(CSc1nc2ccccc2[nH]1)Nc1cc(C(F)(F)F)ccc1N1CCOCC1,-37.7
19,Cc1ccc(NC(=O)COc2ccc(S(=O)(=O)N3CCOCC3)cc2)cc1,7.98
20,O=C(O)CCc1nnc(SCC(=O)Nc2cccc(C(F)(F)F)c2)[nH]c1=O,28.1
21,CCCN1C(=O)CC(Sc2ncccc2C(=O)O)C1=O (stereo not drawn),12.9
22,CCc1ccc(-c2nc(SCC(=O)NC3CCS(=O)(=O)C3)n[nH]2)cc1 (stereo not drawn),4.84
23,COCC(C)Nc1ncnc2c1cnn2-c1ccc(Cl)cc1 (stereo not drawn),2.94

row,SMILES,"hERG current change (%, negative = inhibition) at 10uM [%]"
1,Cc1cccc(C)c1OCCCN1CCCC1,-1.78
2,COc1ccc(CN(Cc2cccnc2)C(=S)NCCc2ccccc2)cc1OC.O=C(O)C(=O)O,-50.5
3,Cc1cc2ccccc2n1CCNC(=O)c1ccc(S(=O)(=O)N2CCOCC2)cc1,3.41
4,CCOC(=O)c1c(C)n(C)c2ccc(OC(C)=O)cc12,-7.24
5,COc1ccccc1CNC(=O)C(=O)NCC1OCCCN1S(=O)(=O)c1cccs1 (stereo not drawn),7.62
6,CCc1[nH]nc(C(=O)N2CCCC(C(=O)c3cccc(C(F)(F)F)c3)C2)c1C (stereo not drawn),-10.4
7,Cc1ccc(OCC(=O)N/N=C/c2cn(C)c3ccccc23)cc1,10.2
8,CCCCNC(=O)CNC(=S)N(Cc1ccc(C)cc1)Cc1ccco1,-28.9
9,O=C(CCn1cncn1)N1CCCC(N2CCN(c3cccc(C(F)(F)F)c3)CC2)C1 (stereo not drawn),-35.8
10,CC12CCCCC1=[N+]([O-])CN2O (stereo not drawn),9
11,Cc1nc(/C(N)=N/OC(=O)c2ccc(Cl)cc2)c(C(F)(F)F)o1,-7.21
12,Cc1cc(Cl)c(OCCCNC2CCCC2)c(Br)c1.O=C(O)C(=O)O,-56.9
13,CS(=O)Cc1cc(Oc2ccccc2)nc(-c2ccncc2)n1 (stereo not drawn),-16.5
14,CC1N=C2c3ccccc3N=C(SCc3cc(=O)n4cc(Cl)ccc4n3)N2C1=O (stereo not drawn),-63.6
15,CCn1c(SCc2ccccc2)nc2ccccc2c1=O,2.76
16,O=c1oc2ccccc2c(O)c1Sc1ccc(Cl)cc1,6.16
17,c1ccc(Oc2nc(-c3ccccn3)nc3ccccc23)cc1,-5.8
18,Cc1[nH][nH]c(=O)c1C(c1c(C)[nH][nH]c1=O)c1cn(Cc2ccc(F)cc2)c2ccccc12,-21.3
19,O=C(O)CCCNc1cc(N2CCC3(CC2)OCCO3)c2noc3c2c1C(=O)c1ccccc1-3,-16.3
20,O=C(CCNS(=O)(=O)c1ccccc1F)N1CCN(C/C=C/c2ccccc2)CC1,-47.8
21,CC1CCN(c2c(NCC3CCC(C(=O)NC4CCCCCC4)CC3)c(=O)c2=O)CC1 (stereo not drawn),6.29
22,Nc1nnc(SCCCC(=O)c2ccc(Br)cc2)s1,26.5
23,CCCNCc1cc(OCC)c(OCC(=O)Nc2ccccc2)cc1Br,-24.7

row,SMILES,"hERG current change (%, negative = inhibition) at 10uM [%]"
1,COc1cccc(NC(=O)C(NCCc2ccc(S(N)(=O)=O)cc2)c2ccccc2)c1 (stereo not drawn),-35.2
2,CCOC(=O)c1ccc(S(=O)(=O)NC2CCC(C)CC2)cc1 (stereo not drawn),-16.5
3,CC(=O)c1ccc(NC(=O)C2CCCNC2=O)cc1 (stereo not drawn),30.6
4,CCC(=Nc1ccc(OC)cc1OC)c1c(O)n(C2CCCCC2)c(=O)[nH]c1=O,-5.51
5,Cc1ccc(N(Cc2cc3ccc(C)cc3[nH]c2=O)C(=O)c2ccco2)cc1,-7.29
6,CCN(CC)c1ccc(NC(=O)Nc2cccc3ccccc23)cc1,7.7
7,COc1cccc(CN2CC(C(=O)NC3CCCCCC3)CCC2=O)c1 (stereo not drawn),12.2
8,O=C(COc1ncnc2sccc12)NC1CCCc2ccccc21 (stereo not drawn),9.25
9,CCc1cccc(OC2OC(CO)C(O)C(O)C2NC(C)=O)c1 (stereo not drawn),0.684
10,CC(=O)NCC1(O)CCCC(C)C1 (stereo not drawn),15.8
11,COC(=O)Nc1ccc(Cn2cc(C(F)(F)F)ccc2=O)cc1,18.9
12,Cc1cccc(N2CCN(C(=O)C3CCC(=O)N(Cc4ccccc4F)C3)CC2)c1C (stereo not drawn),-29
13,O=[N+]([O-])c1ccc2c(c1)c1ccccc1n2CCO,-11.4
14,C=CCNC(=O)c1ccc(NC(=O)C2=CSCCO2)cc1,5.18
15,COc1cc(C(=O)NCC(=O)NCC2COc3ccccc3O2)cc(OC)c1OC (stereo not drawn),-4.95
16,CC(NC(=O)c1ccccc1NC(=O)CN1CCc2ccccc2C1)c1ccccc1 (stereo not drawn),4.16
17,c1ccc2c(c1)ncn2CCOCCOCCn1cnc2ccccc21,-15.9
18,Cc1cc(N2CCN(c3ccccc3)CC2)nc(-c2ccccc2)n1,-30.9
19,CC(=O)N[C@@H](C)c1nc2ccccc2n1CCNC(=O)[C@H]1CCCN1c1nc(CN2CCCCC2)cs1,4.85
20,Cc1nc(NC(=O)COc2ccccc2)sc1C(=O)Nc1cccc(Cl)c1,-5.63
21,CCCCN1C(=O)C(=O)NC[C@@H]1C(C)O (stereo partly drawn),15.6
22,O=C1CN(C(=O)CSc2nc3ccccc3c(=O)n2CC2CCCO2)c2ccccc2N1 (stereo not drawn),-31.3
23,COc1ccc(C(=O)Nc2nnc(-c3ccco3)s2)cc1,13.2

row,SMILES,"hERG current change (%, negative = inhibition) at 10uM [%]"
1,Cc1ccc(-c2ccc(=O)n(CC(=O)Nc3ccc4c(c3)OCCO4)n2)cc1,-8.73
2,Cl.N[C@@H](Cc1ccc(O)cc1)c1nnc([C@H](CC(=O)O)NC(=O)C2CCNCC2)o1,7.64
3,CCOc1ccc(N2CC(=O)N/C2=N\c2nc(C)cc(C)n2)cc1,-18.5
4,Cc1ccc2cc(CN(c3ccccc3)S(=O)(=O)c3ccccc3)c(=O)[nH]c2c1,-2.83
5,CCc1ccc(C(=O)N2CCC(c3nc4ccccc4s3)CC2)cc1,-71.9
6,COC(=O)NNC(=S)Nc1ccc(Br)cc1,-5.79
7,NC(=O)C1(S(=O)(=O)c2ccccc2)CCCCC1,13.2
8,CC1=C(CC/C(C)=N/NC(N)=S)C(C)(C)CCC1,4.93
9,COc1ccc2c(c1OC)C(=O)NC(C)=C(C(=O)OC(C)(C)C)C2O (stereo not drawn),6.49
10,Cc1cc(NC(=S)N(Cc2ccc(Cl)cc2)Cc2ccc(C(=O)O)cc2)ccc1Cl,29.1
11,Cc1cc2c(c(=O)n1Cc1cccnc1)C(c1ccccc1)C(C#N)=C(N)O2 (stereo not drawn),22
12,CCOc1ccc(C(=O)NCCNC(=O)c2ccc(OCC)cc2)cc1,9.15
13,Cc1noc(C)c1N=Nc1ccc(Br)cc1C(=O)O,5.19
14,CCc1nnc(NC(=O)c2ccc(N(C)S(=O)(=O)c3ccccc3)cc2)s1,-0.249
15,Cc1ccc(O)c(-c2cc(C(=O)Nc3cccnc3)[nH]n2)c1,2.13
16,Cc1ccc(-n2c(SCC(=O)OC(C)C)nnc2-c2ccncc2)cc1,5.96
17,CCc1ccc(-c2nnn(CCC(=O)OC)n2)cc1,-5.94
18,O=C(N/N=C/c1c[nH]c2ccccc12)c1cc(-c2ccccc2)n[nH]1,-0.363
19,CCOC(=O)c1c(-c2ccccc2)oc2ccc(OCC(N)=O)cc12,14.8
20,CCCCCCCCC1=NCCc2c1[nH]c1ccccc21.Cl,-79.2
21,CC1CCC(C(C)C)C(OCC(O)CN2CCOCC2)C1.Cl (stereo not drawn),-0.613

# — PMC4336329 (PLoS ONE, 2015)
